Source: PubChem BioAssay AID488969 (Vanderbilt High Throughput Screening Facility, 2010)
Whole data set: some 110,000 compounds, median “z-score” near -0.1, cut for the highest 2% near 2. Some of the results follow. The source made the active and inactive calls.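 Rule for the calls: active = z-score in the third read window above 3 or below -3; inactive = the rest.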

The compounds below were run against Metabotropic glutamate receptor 8 (Rattus norvegicus) (UniProt P70579) (assay: mGluR8 Gi/Go-coupled signaling modulation – cell-based, rat, thallium flux, HTS, primary screen (AID 488969)). Conditions: HEK293 rat mGluR8, GIRK (G protein-gated inwardly rectifying potassium channel) thallium flux, FluoZin2; at 10 µM; stronger effect = higher value; submaximal glutamate (EC20) added with thallium.
Sequence of UniProt P70579 (P70579 whole entry, looked up): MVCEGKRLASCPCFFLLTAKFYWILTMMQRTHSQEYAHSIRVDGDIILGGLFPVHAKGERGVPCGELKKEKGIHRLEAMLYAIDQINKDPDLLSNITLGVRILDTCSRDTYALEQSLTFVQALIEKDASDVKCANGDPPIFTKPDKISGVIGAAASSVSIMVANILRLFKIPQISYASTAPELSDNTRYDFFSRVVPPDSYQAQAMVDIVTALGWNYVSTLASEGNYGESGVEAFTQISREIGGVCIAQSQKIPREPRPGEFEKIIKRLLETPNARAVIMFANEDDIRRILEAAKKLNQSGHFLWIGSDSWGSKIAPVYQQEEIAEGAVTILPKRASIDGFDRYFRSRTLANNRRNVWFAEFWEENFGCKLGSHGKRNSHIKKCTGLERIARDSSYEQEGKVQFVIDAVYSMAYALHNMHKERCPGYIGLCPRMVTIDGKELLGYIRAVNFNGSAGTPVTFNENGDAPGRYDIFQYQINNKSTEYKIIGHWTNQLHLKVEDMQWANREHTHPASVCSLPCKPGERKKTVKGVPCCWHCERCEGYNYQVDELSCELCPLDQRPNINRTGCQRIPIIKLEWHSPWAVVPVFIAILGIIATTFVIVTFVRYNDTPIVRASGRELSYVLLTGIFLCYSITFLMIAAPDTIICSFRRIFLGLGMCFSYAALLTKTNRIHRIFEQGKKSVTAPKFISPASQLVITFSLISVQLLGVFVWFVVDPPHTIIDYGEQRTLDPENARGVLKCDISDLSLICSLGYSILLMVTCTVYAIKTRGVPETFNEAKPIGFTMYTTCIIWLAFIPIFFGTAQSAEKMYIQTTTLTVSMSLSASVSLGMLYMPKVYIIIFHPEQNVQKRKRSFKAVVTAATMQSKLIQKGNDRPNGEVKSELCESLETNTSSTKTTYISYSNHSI
With `COc1ccccc1CC(=O)N1CCN(c2cccc(C(F)(F)F)c2)CC1` the z-score was 0.359. In the case of `O=S(=O)(NC1=NCCC1)c1cccs1`, the z-score is reported as -0.13. For `COC(=O)N1CCN(c2ccc(Cl)c(Cl)c2)CC1`, the z-score was 0.194. `N#Cc1ccc(CSc2nnc(-c3ccccc3)n2Cc2ccco2)cc1` gave a z-score of -0.289. Work on `CC(C)(C)C(=O)Nc1cccc(-c2nc3ccccc3[nH]2)c1` yielded a z-score of -0.137. `CCOC(=O)C(C)n1cnc2c(nnn2Cc2ccc(C)cc2)c1=O` (stereo not drawn) showed a z-score of 0.981. Work on `COc1ccc(-c2nsc3c(N4CCCCC4)ncnc23)cc1` yielded a z-score of 0.0276. For `CN(C)S(=O)(=O)c1cccc(NC(=S)Nc2ccc(Cl)cc2Cl)c1`, the z-score was active: 7.58. With `CCC1(C)Cc2ccccc2-c2c1c(=O)n(Cc1ccccc1)c1nnnn21` (stereo not drawn) the z-score was 0.314. `CCc1nnc(NC(=O)CSc2nccn2-c2cc(C)cc(C)c2)s1` showed a z-score of -0.56. `COc1ccccc1C(CC(=O)Nc1nccs1)c1ccco1` (stereo not drawn) showed a z-score of -0.974. With `O=S(=O)(c1ccc(Cl)cc1)n1ccc2cccnc21` the z-score was -0.313. `Cc1cc(C)n(CCc2nc(-c3cc4ccccc4o3)cs2)n1` was tested, and the z-score was -0.767. With `O=C1c2ccccc2-c2ncnc3cccc1c23` the z-score was 0.183. `CCOC(=O)c1c(C)nc2c(C#N)cnn2c1C` gave a z-score of 0.00137. `O=C(NCc1ccco1)c1ccc(Cn2cc([N+](=O)[O-])cn2)o1` showed a z-score of 0.638. In the case of `CN(C)c1ccc(NS(=O)(=O)c2cccc(Cl)c2)cc1`, the z-score is reported as -0.342. In the case of `Cc1ccccc1OCC(=O)N1N=C(C(F)(F)F)CC1(O)C(C)(C)C` (stereo not drawn), the z-score is reported as 1.61. Work on `O=C(NNC(=S)Nc1ccccc1)C1CC1` yielded a z-score of -0.336. `N#C/C(=C\c1cccnc1)C(=O)Nc1cccc2ccccc12` showed a z-score of -0.463. In the case of `CCNC(=O)NC(=O)CSc1nc2ccccc2n1CC(C)C`, the z-score is reported as -0.0199. With `CC(C)(C)C(=O)/C=C(\N)c1ccccn1` the z-score was 0.263. With `CN(C(=O)c1cnc2n(c1=O)CCS2)C1CCCCC1` the z-score was -0.376. `CN(C(=O)COC(=O)c1c[nH]c(=O)[nH]c1=O)C1CCCCC1` showed a z-score of -0.125. Work on `O=Cc1ccc(OCC(=O)NC(=O)NC2CCCCC2)cc1` yielded a z-score of -0.481. With `COc1ccc(S(=O)(=O)N(c2onc(C)c2Cl)S(=O)(=O)c2ccc(OC)c(OC)c2)cc1OC` the z-score was -0.165. `Cc1ccc(NS(=O)(=O)c2ccccc2Cl)c2c1CC(C)(C)O2` was tested, and the z-score was 0.142. `CC(C)OC(=O)c1cccnc1SCC(=O)N(C)c1ccccc1` gave a z-score of -0.698. `CCCCC(CC)CN1C(=O)/C(=C/c2ccncc2)SC1=S` (stereo not drawn) showed a z-score of -0.105. `Cc1ccc(/C=N/N2CCN(Cc3ccccc3)CC2)o1` gave a z-score of 0.121. In the case of `Cc1nnc(-c2cccc(Br)c2)c2cn(-c3ccccc3Cl)nc12`, the z-score is reported as -0.437. For `CCCOc1ccc(C(=O)Nc2ccc(C)cc2[N+](=O)[O-])cc1`, the z-score was -0.35. With `O=C(Nc1nc(-c2ccc(F)c(F)c2)cs1)c1ccc(OCC2CCCO2)cc1` (stereo not drawn) the z-score was -0.359. With `O=C1/C(=C/c2ccccc2)Oc2cc(OC(=O)N3CCOCC3)ccc21` the z-score was -0.159. In the case of `CCc1ccc(N=C2N=C(N)c3ccccc32)cc1`, the z-score is reported as -0.165. `O=C(NCc1cn2ccsc2n1)c1cccs1` was tested, and the z-score was -0.616. Work on `Cn1ccnc1-c1nc2ccccc2[nH]c1=O` yielded a z-score of 0.000744. In the case of `C=CCn1c(SCc2nc3ccccc3c(=O)[nH]2)nc2ccccc2c1=O`, the z-score is reported as -0.561. With `c1ccc(-c2nn3nnnc3c3ccccc23)cc1` the z-score was 0.134. Compound `CN1CCN(c2ccccc2NS(=O)(=O)c2ccc3c(c2)CCN3C(=O)C2CCC2)CC1` has a z-score of 0.507. Compound `CCC(CC)C(=O)c1c[nH]c(C(=O)NCc2ccco2)c1` has a z-score of 0.0881. With `CCC(C)NC(=O)Nc1ccc2c(c1)N(C)C(=O)c1ccccc1S2` (stereo not drawn) the z-score was -0.535. Work on `COC(=O)Cn1c(CCS(=O)(=O)c2ccc(Cl)cc2)nc2ccccc21` yielded a z-score of -0.43. In the case of `CCc1ccc(C(=O)N2CCN(c3ccc(F)cc3)CC2)s1`, the z-score is reported as -0.883. Compound `CCOC(=O)Cn1c(=O)oc2cc(S(=O)(=O)Nc3ccc(N(CC)CC)cc3C)ccc21` has a z-score of 2.74. `CCCn1c(C)cc(C(=O)COC(=O)c2c(C)nn(-c3ccccc3)c2C)c1C` showed a z-score of 0.0826. Compound `Cc1nnc(SCc2nnc(-c3ccccc3Br)o2)n1-c1ccccc1` has a z-score of -0.102. `Cc1ccc(-c2nc3s/c(=C\c4ccco4)c(=O)n3n2)cc1` was tested, and the z-score was -0.145. Compound `COC(=O)c1ccccc1NC(=O)CSc1nc2c(c(=O)n(C)c(=O)n2C)n1C` has a z-score of -0.00667. `c1ccc(Cn2ncc3c(N4CCOCC4)ncnc32)cc1` showed a z-score of -0.095. `CC1CCN(c2ncnc3c2cnn3Cc2ccc(Cl)cc2)CC1` showed a z-score of -0.0922. With `CCO/C=C1/C(=O)N(C(C)=O)c2ccccc21` the z-score was 0.333. Work on `Cc1cc(C(=O)OCC(=O)N2CCN(c3ccccc3)CC2)c2ccccc2n1` yielded a z-score of -1.52. With `Cc1ccc(N2C(=O)N(CC(=O)NCc3ccc(Cl)cc3)C(=O)C2C)cc1` (stereo not drawn) the z-score was -0.209. Work on `Cc1ccc(NC(=O)CCC(=O)OC(C(=O)c2ccc(C)c(C)c2)c2ccccc2)c(C)c1` (stereo not drawn) yielded a z-score of -0.288. For `COc1cc(/C=C2\SC(=S)NC2=O)ccc1OS(=O)(=O)c1ccccc1`, the z-score was active: 15.1. With `Cc1cccc(C(=O)NCCc2ccc(S(N)(=O)=O)cc2)c1[N+](=O)[O-]` the z-score was 0.144. `CCc1ccc(NC(=O)CC2NCCNC2=O)cc1` (stereo not drawn) gave a z-score of 0.239. `O=c1cc(-c2ccccc2)nc2nc(SCc3ccccc3)[nH]n12` showed a z-score of -0.33. Work on `COc1ccc(OCCSc2nnc(-c3ccoc3C)n2C)cc1` yielded a z-score of -0.174. `CNC(=O)Nc1ccccc1NC(=O)NC` showed a z-score of 0.0574. Compound `CCOC(=O)C1=C(C)NC2=C(C(=O)CC(C)(C)C2)C1c1coc2ccccc2c1=O` (stereo not drawn) has a z-score of -0.105. Work on `CCCC(=O)Nc1nc(-c2ccc3c(c2)OCCO3)cs1` yielded a z-score of 0.242. In the case of `COc1ccc(OC)c(NS(=O)(=O)c2ccc(N3CCCC3=O)cc2)c1`, the z-score is reported as -0.156. In the case of `COC(=O)c1nc(NC(C)=O)n[nH]1`, the z-score is reported as active: -5.48. With `CCOC(=O)C1=C(C)NC(=O)NC1c1ccc(OC(C)C(=O)O)c(OC)c1` (stereo not drawn) the z-score was 0.0131. Work on `COc1cc2c(cc1OC)C(=O)CCS2` yielded a z-score of -0.155. `Cc1cccc(-n2[nH]c(C)c(C=Nc3ccc4[nH]c(=O)[nH]c4c3)c2=O)c1` showed a z-score of -0.176. With `O=C(Nc1cc(Cl)ccc1O)c1cc2n(n1)C(C(F)(F)F)CC(c1ccc3c(c1)OCO3)N2` (stereo not drawn) the z-score was -0.147. For `COC(=O)Nc1ccc(S(=O)(=O)N2CCCC(C(=O)NC3CCS(=O)(=O)C3)C2)cc1` (stereo not drawn), the z-score was -0.597. Compound `O=C(CNS(=O)(=O)c1cccc(Cl)c1)OCc1csc(-c2ccccc2)n1` has a z-score of -1.56. `O=C(CSc1nnc(-c2ccccc2F)n1C1CCCCC1)N1CCCC1` gave a z-score of -0.551. Work on `CCOc1ccc(Oc2ccc(C(F)(F)F)cc2N)cc1` yielded a z-score of -0.33. `COc1ccc(Cc2c(C)nc(N)nc2Cl)cc1` was tested, and the z-score was 0.388. `O=C(CSCCc1ccccn1)Nc1ccc(Br)cn1` showed a z-score of -0.0969. Work on `Cc1ccc(-c2[nH]nc3c2C(c2ccoc2)C(C#N)=C(N)O3)cc1C` (stereo not drawn) yielded a z-score of 0.829. `O=C(CSc1nnc(-c2ccncc2)n1Cc1ccco1)N1c2ccccc2Sc2ccc(Cl)cc21` gave a z-score of -0.362. Work on `O=C(O)CSc1nnc(-c2cccs2)n1-c1ccc(Cl)cc1` yielded a z-score of 0.213. `CC1(C(=O)O)CCC(C(=O)Nc2ccccc2)C1(C)C` (stereo not drawn) gave a z-score of 0.178. `COc1ccc(-n2c(Cc3cccn3C)nnc2SCC(=O)Nc2ccc(Cl)cc2)cc1` showed a z-score of -0.855. `CN(C(=O)CSc1nnc(NC2CCCCC2)s1)C1CCS(=O)(=O)C1` (stereo not drawn) was tested, and the z-score was -0.217. `Nc1nnc(SCC(=O)NCc2ccc3c(c2)OCO3)s1` showed a z-score of 0.141. With `O=C(CCn1cnc2ccccc2c1=O)Nc1ccc(Cl)c(Cl)c1` the z-score was -0.166. Work on `O=C1C(Cl)=C(N2CCCCC2)C(=O)N1c1ccccc1Cl` yielded a z-score of -2.27. `CCOC(=O)c1ccc(COC(=O)CCc2nc(-c3ccccc3)c(-c3ccccc3)o2)cc1` was tested, and the z-score was -0.163. `Cc1ccc(N2C(=O)c3ccc(N)cc3C2=O)cc1C` gave a z-score of -0.197. With `CC(=O)NC1=NN(C(C)=O)C(C)(c2cccs2)S1` (stereo not drawn) the z-score was -0.0691. In the case of `CC(C)(C)c1ccc(-c2nnc(SCC(=O)Nc3sc4c(c3C#N)CCCC4)o2)cc1`, the z-score is reported as -0.0718. `CC(C)Oc1ccc(N2CC(C(=O)Nc3ccccc3F)CC2=O)cc1` (stereo not drawn) was tested, and the z-score was -0.0994. For `CCOc1ccc(N=C2C(=O)N(CN3CCOCC3)c3ccccc32)cc1`, the z-score was -0.696. `Cc1nc(N2CCN(C)CC2)[nH]c(=O)c1Cc1cccc2ccccc12` gave a z-score of -0.192. In the case of `CCN(CC)CC(=O)N1N=C(c2cccs2)CC1c1ccco1` (stereo not drawn), the z-score is reported as -0.0372. In the case of `COc1ccccc1CC(=O)Nc1ccc(-c2nnc(-c3ccco3)o2)cc1`, the z-score is reported as 1.11. `Cc1ccc(SCCNC(=O)C(CO)(CO)CO)cc1` showed a z-score of 0.21. `CC(=O)c1cnc2c(C(=O)O)cnn2c1C` gave a z-score of -0.379. `Cc1cc(C)c(NC(=O)C2CCCN2CCO)c(C)c1` (stereo not drawn) gave a z-score of 0.17. `O=C(NCc1ccc(F)cc1)C1CCC(=O)N1C1CCCCC1` (stereo not drawn) was tested, and the z-score was 0.276. `O=[N+]([O-])c1ccccc1/C=C/CN1CCCCC1` showed a z-score of -0.0326. `CC(C)OCCCNC(=O)CNC(=O)c1cccs1` showed a z-score of 1.05. For `CCOC(=O)c1ccc(-n2nc(C(F)(F)F)c3c(C)cc(=O)oc32)cc1`, the z-score was 0.309. Compound `CCOC(=O)/C(C#N)=C/c1cn(CCOc2ccc(OC)cc2)c2ccccc12` has a z-score of -0.109. Compound `CC(NC(=O)C1CCCN(C(=O)N(C)C)C1)c1ccccc1` (stereo not drawn) has a z-score of 0.19. Compound `CCOc1ccc(S(=O)(=O)N2CCN(C)CC2)c(C)c1C` has a z-score of 0.117. `COc1ccc(NC(=O)CSc2nc(O)c(Cc3ccccc3)c(=O)[nH]2)cc1` was tested, and the z-score was 0.339. For `Cc1ccc(S(=O)(=O)N/N=C2/CC(c3ccccc3)Oc3ccccc32)cc1[N+](=O)[O-]` (stereo not drawn), the z-score was 0.0121. With `COc1ccc(-n2nc(C(=O)Nc3nc4ccc(OC)cc4s3)c3ccccc3c2=O)c(OC)c1` the z-score was -0.0289. For `Cc1cc(C(=O)COc2nncc3ccccc23)c(C)n1C`, the z-score was 0.0547. In the case of `Cc1ccc(S(=O)(=O)NC(C)CCc2ccccc2)cc1` (stereo not drawn), the z-score is reported as -0.846. With `Oc1ccccc1Nc1ncnc2c1oc1ccccc12` the z-score was -0.536. With `O=C1[C@@H]2[C@H](Cc3ccc(O)cc3)N[C@]3(C(=O)Nc4ccccc43)[C@@H]2C(=O)N1c1ccc(F)cc1` the z-score was -0.384. Compound `CCOC(=O)C1CCN(C(=O)COC(=O)COc2ccccc2OC)CC1` has a z-score of -0.568. Compound `CSc1ccc(C2Nc3ccccc3-c3cc(C)nn32)cc1` (stereo not drawn) has a z-score of 0.909. `Cc1onc(-c2ccccc2Cl)c1C(=O)NCc1cccs1` was tested, and the z-score was -0.426.
